B1: Caulobacter ParB omega fusion; a variant is named by its letters at X, in order, B8GW30 (parent)
chain: MESVVVGEPGMSEGRRGLGRGLSALLGEVDAAPAQAPGEQLGGSREAPIEILQRNPDQPRRTFREEDLEDLSNSIREKGVLQPILVRPSPDTAGEYQIVAGERAWRAAQRAGLKTVPIMVRELDDLAVLEIGIIENVQRADLNVLEEALSYKVLMEKFERTQENIAQTIGKSXSHVANXMRLLXLPDEVQSYLVSGELTAXHARAIAAAADPVALAKQIIEGGLSVRETEALARKAPNLSAGKSKGGRPPRVKDTDTQALESDLSSVLGLDVSIDHRGSTGTLTITYATLEQLDDLCNRLTRGI

Over roughly 81,000 sequences, “one-hybrid fitness for binding NBS DNA” has its median near -0.1; the highest 2% begin near 0.36. This is one part of the list.

This assay covers variants of B1. As to the kind of experiment: one-hybrid fitness for binding NBS DNA (the Noc-binding site; scaled: cognate 1, non-cognate 0); higher = stronger binding. Conditions: with NBS DNA site. The method, boiled down:
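Caulobacter ParB libraries with four specificity codons randomised were screened by bacterial one-hybrid selection in the E. coli USO strain, using a HIS3 reporter whose site lies 19 bp from the promoter. Selection ran for 48 hours at 37°C on M9 lacking histidine, with 0.1 mM IPTG and 5 mM 3-AT. Plasmids were Illumina-sequenced before and after selection, three replicate libraries were pooled, and variants with under 10 reads were dropped. Fitness is the log change in each variant's read ratio to wild type, rescaled against the cognate and non-cognate sites.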
Turning to CADI, the “one-hybrid fitness for binding NBS DNA” value is at most 0.2. WGSS: the “one-hybrid fitness for binding NBS DNA” value was at most 0.2. With GIDI the figure was at most 0.2; with KFAR, at most 0.2; with HHKC, at most 0.2. With MWRG the figure was at most 0.2; with SNTE, at most 0.2; with CSGF, at most 0.2. In the case of IALC it was at most 0.2; in that of VWDT, at most 0.2; in that of RCKD, at most 0.2. As for STGE, the “one-hybrid fitness for binding NBS DNA” value was at most 0.2. Take SGKY: the “one-hybrid fitness for binding NBS DNA” value was at most 0.2. For YKTS, the “one-hybrid fitness for binding NBS DNA” value is at most 0.2.

HVMT: the “one-hybrid fitness for binding NBS DNA” value is at most 0.2. With FTTG the figure was at most 0.2; with SDTR, at most 0.2. In the case of SSDD it was at most 0.2. With RGFV the figure was at most 0.2; with SMYI, at most 0.2; with YPDY, at most 0.2.

On to TCRD, for which the “one-hybrid fitness for binding NBS DNA” value was at most 0.2. With DPIW the figure was at most 0.2; with CLML, at most 0.2; with SWAY, at most 0.2.

As for MWHL, the “one-hybrid fitness for binding NBS DNA” value is at most 0.2. With EMPR the figure was at most 0.2. In the case of ASVY it was at most 0.2. With MEPS the figure was at most 0.2; with AARA, at most 0.2; with SYHS, at most 0.2.

Turning to TNYS, the “one-hybrid fitness for binding NBS DNA” value is at most 0.2.

As for AHYY, the “one-hybrid fitness for binding NBS DNA” value is at most 0.2. In the case of ERHR, the “one-hybrid fitness for binding NBS DNA” value was at most 0.2.

ARFK: the “one-hybrid fitness for binding NBS DNA” value is at most 0.2. For LLYH, the “one-hybrid fitness for binding NBS DNA” value is at most 0.2. With DYLM the figure was at most 0.2. Take YQLE: the “one-hybrid fitness for binding NBS DNA” value is at most 0.2.

As for LGKG, the “one-hybrid fitness for binding NBS DNA” value is at most 0.2. QQCS: the “one-hybrid fitness for binding NBS DNA” value worked out at 0.356.

Take QMVV: the “one-hybrid fitness for binding NBS DNA” value was at most 0.2. In the case of IVGS it was at most 0.2; in that of RIEC, at most 0.2. As to GGHT, the “one-hybrid fitness for binding NBS DNA” value is at most 0.2. On to TSAE, for which the “one-hybrid fitness for binding NBS DNA” value is at most 0.2. In the case of QPLK it was at most 0.2; in that of CATA, at most 0.2; in that of QEAF, at most 0.2. With TVHK the figure was at most 0.2; with GQSR, at most 0.2; with VASY, at most 0.2. In the case of DMDS it was at most 0.2; in that of VSIL, at most 0.2. Take GQTW: the “one-hybrid fitness for binding NBS DNA” value was at most 0.2. With YCYS the figure was at most 0.2.

In the case of YVTT, the “one-hybrid fitness for binding NBS DNA” value was at most 0.2.

For the variant TQGW, the “one-hybrid fitness for binding NBS DNA” value was at most 0.2. For the variant VEPH, the “one-hybrid fitness for binding NBS DNA” value was at most 0.2. In the case of HNDC it was at most 0.2; in that of YDAT, at most 0.2; in that of FPMN, at most 0.2. As for AIDM, the “one-hybrid fitness for binding NBS DNA” value was at most 0.2. With TLLT the figure was at most 0.2; with GSWK, at most 0.2; with NLCT, at most 0.2. Regarding LHWH, the “one-hybrid fitness for binding NBS DNA” value was at most 0.2. Consider DRAS, for which the “one-hybrid fitness for binding NBS DNA” value is at most 0.2.

For QQVC, the “one-hybrid fitness for binding NBS DNA” value is at most 0.2.

Regarding NNHN, the “one-hybrid fitness for binding NBS DNA” value is at most 0.2. With RRDY the figure was 0.306; with TWFG, at most 0.2. With ATCI, the “one-hybrid fitness for binding NBS DNA” value was at most 0.2. With ELES the figure was at most 0.2. With LSCK the figure was at most 0.2; with NAEH, at most 0.2. Regarding IPHR, the “one-hybrid fitness for binding NBS DNA” value is at most 0.2.

Take RCDN: the “one-hybrid fitness for binding NBS DNA” value was at most 0.2. In the case of RYDK it was at most 0.2; in that of KLHR, at most 0.2. In the case of ACNF it was at most 0.2; in that of SSCY, at most 0.2; in that of QQAG, at most 0.2. With DYER, the “one-hybrid fitness for binding NBS DNA” value was at most 0.2. With IGEW the figure was at most 0.2; with INRN, at most 0.2; with GQYE, at most 0.2. As for LAWH, the “one-hybrid fitness for binding NBS DNA” value is at most 0.2. With ESAK the figure was at most 0.2; with ESHG, at most 0.2; with RLGK, at most 0.2.

Turning to TNNI, the “one-hybrid fitness for binding NBS DNA” value was at most 0.2. Turning to CLQP, the “one-hybrid fitness for binding NBS DNA” value is at most 0.2.

In the case of TYYT, the “one-hybrid fitness for binding NBS DNA” value was at most 0.2. Consider QFCR, for which the “one-hybrid fitness for binding NBS DNA” value was at most 0.2. Consider FKID, for which the “one-hybrid fitness for binding NBS DNA” value is at most 0.2.

On to RQAR, for which the “one-hybrid fitness for binding NBS DNA” value amounted to 0.427. With ALHK the figure was at most 0.2. Turning to VWSY, the “one-hybrid fitness for binding NBS DNA” value is at most 0.2.

With PDTA, the “one-hybrid fitness for binding NBS DNA” value was at most 0.2. Take CRIS: the “one-hybrid fitness for binding NBS DNA” value was at most 0.2. Consider DIYT, for which the “one-hybrid fitness for binding NBS DNA” value is at most 0.2. For SNPV, the “one-hybrid fitness for binding NBS DNA” value was at most 0.2. With SMSF the figure was at most 0.2; with CRYA, at most 0.2.

As to PELC, the “one-hybrid fitness for binding NBS DNA” value was at most 0.2. With RIDP the figure was at most 0.2; with KLDM, at most 0.2; with DSDM, at most 0.2. Take RHIP: the “one-hybrid fitness for binding NBS DNA” value was at most 0.2. As for WKNG, the “one-hybrid fitness for binding NBS DNA” value was at most 0.2.

PAER: the “one-hybrid fitness for binding NBS DNA” value was at most 0.2. On to IPHQ, for which the “one-hybrid fitness for binding NBS DNA” value is at most 0.2. As for TIKI, the “one-hybrid fitness for binding NBS DNA” value is at most 0.2.

With LKRL, the “one-hybrid fitness for binding NBS DNA” value was at most 0.2.

Consider FVTL, for which the “one-hybrid fitness for binding NBS DNA” value was at most 0.2.

As to GPEP, the “one-hybrid fitness for binding NBS DNA” value was at most 0.2. In the case of TDAS it was at most 0.2; in that of YDIS, at most 0.2; in that of RSVL, at most 0.2. In the case of HYMT it was at most 0.2. On to QIQK, for which the “one-hybrid fitness for binding NBS DNA” value was at most 0.2. As for RLVH, the “one-hybrid fitness for binding NBS DNA” value was at most 0.2. In the case of RNNS it was 0.388. In the case of WPTS it was at most 0.2; in that of CCRR, 0.216; in that of TMSE, at most 0.2. As to KRFV, the “one-hybrid fitness for binding NBS DNA” value is at most 0.2. With NVNV the figure was at most 0.2; with APAQ, at most 0.2; with TQKL, at most 0.2. Consider RQRL, for which the “one-hybrid fitness for binding NBS DNA” value is at most 0.2.

Regarding QQQA, the “one-hybrid fitness for binding NBS DNA” value came to 0.357. Turning to WRMS, the “one-hybrid fitness for binding NBS DNA” value was at most 0.2. As for GNPS, the “one-hybrid fitness for binding NBS DNA” value is at most 0.2. In the case of HWTT it was at most 0.2; in that of WACY, at most 0.2.

With CHFT, the “one-hybrid fitness for binding NBS DNA” value is at most 0.2.

Take LHES: the “one-hybrid fitness for binding NBS DNA” value was at most 0.2. With RPHC the figure was at most 0.2; with SYAV, at most 0.2. Regarding LYSV, the “one-hybrid fitness for binding NBS DNA” value is at most 0.2. In the case of PVNC it was at most 0.2; in that of QYFG, at most 0.2. Take VCLT: the “one-hybrid fitness for binding NBS DNA” value was at most 0.2. With ISWR, the “one-hybrid fitness for binding NBS DNA” value is at most 0.2. As to FCHG, the “one-hybrid fitness for binding NBS DNA” value was at most 0.2. With NFHR the figure was at most 0.2; with NKRT, at most 0.2. With TGPC, the “one-hybrid fitness for binding NBS DNA” value was at most 0.2. On to PLAC, for which the “one-hybrid fitness for binding NBS DNA” value was at most 0.2.

In the case of LSGK, the “one-hybrid fitness for binding NBS DNA” value was at most 0.2. For RCRK, the “one-hybrid fitness for binding NBS DNA” value worked out at 0.235. With SITP the figure was at most 0.2.

The values above are taken from a collection of fitness landscapes (doi:10.1016/j.celrep.2020.107928).
